Data published in PubChem BioAssay (NCI).
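All cell lines were grown in 96-well plates and treated with compound for 48 hours. GI50 marks 50% less growth.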 The source holds more than one record for some entries. This is not the full list of results. The source may hold further records. Values given together repeat one measurement across runs, samples, wells, individuals or studies. Brackets tell where a record comes from. Letters hold for one entry only.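 TGI marks complete inhibition of growth.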

Assays:
Experiment in all cases: NCI-60 cell line screen, 48 h
M14 melanoma = test system: M14 melanoma
NCI-H23 lung = test system: NCI-H23 lung
U251 CNS = test system: U251 CNS
MDA-N = test system: MDA-N
NCI-H226 lung = test system: NCI-H226 lung
786-0 renal = test system: 786-0 renal
SF-268 CNS = test system: SF-268 CNS
RXF 393 renal = test system: RXF 393 renal
UACC-257 melanoma = test system: UACC-257 melanoma
MDA-MB-435 = test system: MDA-MB-435
SF-295 CNS = test system: SF-295 CNS
A549 NSCLC = test system: A549 NSCLC
UACC-62 melanoma = test system: UACC-62 melanoma
PC-3 prostate = test system: PC-3 prostate
MDA-MB-231 breast = test system: MDA-MB-231 breast
OVCAR-5 ovarian = test system: OVCAR-5 ovarian
NCI-H460 lung = test system: NCI-H460 lung
KM12 colon = test system: KM12 colon
SNB-75 CNS = test system: SNB-75 CNS
SK-MEL-5 melanoma = test system: SK-MEL-5 melanoma
HCC-2998 colon = test system: HCC-2998 colon
IGROV1 ovarian = test system: IGROV1 ovarian
EKVX NSCLC = test system: EKVX NSCLC
HOP-62 NSCLC = test system: HOP-62 NSCLC
OVCAR-3 ovarian = test system: OVCAR-3 ovarian
SK-OV-3 ovarian = test system: SK-OV-3 ovarian
NCI-H522 lung = test system: NCI-H522 lung
BT-549 breast = test system: BT-549 breast
SF-539 CNS = test system: SF-539 CNS
HT29 colon = test system: HT29 colon
CAKI-1 renal = test system: CAKI-1 renal
SN12C renal = test system: SN12C renal
A498 renal = test system: A498 renal
SK-MEL-28 melanoma = test system: SK-MEL-28 melanoma
DU-145 prostate = test system: DU-145 prostate
ACHN renal = test system: ACHN renal
HS 578T breast = test system: HS 578T breast
COLO 205 colon = test system: COLO 205 colon

Structure (SMILES): CC(=O)OCC1OC(Sc2nc(-c3ccc(Cl)cc3)c(C#N)c(=O)n2C2OC(COC(C)=O)C(OC(C)=O)C(OC(C)=O)C2OC(C)=O)C(OC(C)=O)C(OC(C)=O)C1OC(C)=O (stereo not given)
- GI50 (M14 melanoma): > 100 µM [sample A, 1 test] and 2.72 µM [sample B, mean of 2 tests]
- GI50 (NCI-H23 lung): > 100 µM [sample A, 1 test] and 6.08 µM [sample B, mean of 2 tests]
- GI50 (U251 CNS): > 100 µM [sample A, 1 test] and 2.5 µM [sample B, 1 test]
- GI50 (MDA-N): > 100 µM [sample A, 1 test] and 3.75 µM [sample B, mean of 2 tests]
- GI50 (NCI-H226 lung): > 100 µM [sample A, 1 test] and 3.2 µM [sample B, mean of 2 tests]
- GI50 (786-0 renal): > 100 µM [sample A, 1 test] and 1.81 µM [sample B, mean of 2 tests]
- TGI (786-0 renal): > 100 µM [sample A, 1 test] and 4.19 µM [sample B, mean of 2 tests]
- GI50 (SF-268 CNS): > 100 µM [sample A, 1 test] and 2.25 µM [sample B, mean of 2 tests]
- TGI (SF-268 CNS): > 100 µM [sample A, 1 test] and 7.9 µM [sample B, mean of 2 tests]
- GI50 (RXF 393 renal): > 100 µM [sample A, 1 test] and 2.57 µM [sample B, mean of 2 tests]
- TGI (RXF 393 renal): > 100 µM [sample A, 1 test] and 8.92 µM [sample B, mean of 2 tests]
- GI50 (UACC-257 melanoma): > 100 µM [sample A, 1 test] and 3.83 µM [sample B, mean of 2 tests]
- GI50 (MDA-MB-435): > 100 µM [sample A, 1 test] and 6.55 µM [sample B, mean of 2 tests]
- GI50 (SF-295 CNS): > 100 µM [sample A, 1 test] and 2.03 µM [sample B, mean of 2 tests]
- TGI (SF-295 CNS): > 100 µM [sample A, 1 test] and 4.64 µM [sample B, mean of 2 tests]
- GI50 (A549 NSCLC): > 100 µM [sample A, 1 test] and 3.44 µM [sample B, 1 test]
- GI50 (UACC-62 melanoma): > 100 µM [sample A, 1 test] and 1.95 µM [sample B, mean of 2 tests]
- TGI (UACC-62 melanoma): > 100 µM [sample A, 1 test] and 4.66 µM [sample B, mean of 2 tests]
- GI50 (PC-3 prostate): > 100 µM [sample A, 1 test] and 3.48 µM [sample B, 1 test]
- GI50 (MDA-MB-231 breast): > 100 µM [sample A, 1 test] and 2.02 µM [sample B, mean of 2 tests]
- TGI (MDA-MB-231 breast): > 100 µM [sample A, 1 test] and 9.04 µM [sample B, mean of 2 tests]
- GI50 (OVCAR-5 ovarian): > 100 µM [sample A, 1 test] and 4.9 µM [sample B, mean of 2 tests]
- GI50 (NCI-H460 lung): > 100 µM [sample A, 1 test] and 765 nM [sample B, mean of 2 tests]
- TGI (NCI-H460 lung): > 100 µM [sample A, 1 test] and 2.19 µM [sample B, mean of 2 tests]
- GI50 (KM12 colon): > 100 µM [sample A, 1 test] and 4.09 µM [sample B, mean of 2 tests]
- GI50 (SNB-75 CNS): > 100 µM [sample A, 1 test] and 2.48 µM [sample B, mean of 2 tests]
- TGI (SNB-75 CNS): > 100 µM [sample A, 1 test] and 9.51 µM [sample B, mean of 2 tests]
- GI50 (SK-MEL-5 melanoma): > 100 µM [sample A, 1 test] and 3.43 µM [sample B, 1 test]
- TGI (HCC-2998 colon): > 100 µM [sample A, 1 test] and 2.17 µM [sample B, mean of 2 tests]
- GI50 (IGROV1 ovarian): > 100 µM [sample A, 1 test] and 8.47 µM [sample B, mean of 2 tests]
- GI50 (EKVX NSCLC): > 100 µM [sample A, 1 test] and 4.5 µM [sample B, mean of 2 tests]
- GI50 (HOP-62 NSCLC): > 100 µM [sample A, 1 test] and 3.57 µM [sample B, 1 test]
- GI50 (OVCAR-3 ovarian): > 100 µM [sample A, 1 test] and 4.85 µM [sample B, 1 test]
- GI50 (SK-OV-3 ovarian): > 100 µM [sample A, 1 test] and 3.21 µM [sample B, mean of 2 tests]
- TGI (NCI-H522 lung): 78.1 µM [sample A, 1 test] and 4.29 µM [sample B, 1 test]
- TGI (BT-549 breast): > 100 µM [sample A, 1 test] and 8.91 µM [sample B, mean of 2 tests]
- GI50 (SF-539 CNS): > 100 µM [sample A, 1 test] and 1.58 µM [sample B, 1 test]
- TGI (SF-539 CNS): > 100 µM [sample A, 1 test] and 3.35 µM [sample B, 1 test]
- TGI (HT29 colon): > 100 µM [sample A, 1 test] and 3.12 µM [sample B, 1 test]
- TGI (CAKI-1 renal): > 100 µM [sample A, 1 test] and 5.78 µM [sample B, mean of 2 tests]
- GI50 (SN12C renal): > 100 µM [sample A, 1 test] and 2.36 µM [sample B, 1 test]
- TGI (SN12C renal): > 100 µM [sample A, 1 test] and 5.3 µM [sample B, 1 test]
- GI50 (A498 renal): > 100 µM [sample A, 1 test] and 1.95 µM [sample B, 1 test]
- TGI (A498 renal): > 100 µM [sample A, 1 test] and 4.26 µM [sample B, 1 test]
- TGI (SK-MEL-28 melanoma): > 100 µM [sample A, 1 test] and 6.13 µM [sample B, mean of 2 tests]
- GI50 (DU-145 prostate): > 100 µM [sample A, 1 test] and 4.04 µM [sample B, mean of 2 tests]
- TGI (ACHN renal): > 100 µM [sample A, 1 test] and 7.36 µM [sample B, mean of 2 tests]
- GI50 (HS 578T breast): > 100 µM [sample A, 1 test] and 3.14 µM [sample B, 1 test]

Structure (SMILES): CC(C)c1cc(C(=O)N2Cc3ccc(CN4CCN(C)CC4)cc3C2)c(O)cc1O
- GI50 (SF-268 CNS): 216 nM [sample A, mean of 2 tests] and 3.51 µM [sample B, mean of 2 tests]
- TGI (COLO 205 colon): 13.3 µM [sample A, mean of 2 tests] and 921 nM [sample B, mean of 2 tests]
- TGI (KM12 colon): 180 nM [sample A, mean of 2 tests] and 2.21 µM [sample B, mean of 2 tests]
- TGI (HCC-2998 colon): 881 nM [sample A, mean of 2 tests] and 14.6 µM [sample B, mean of 2 tests]
- GI50 (IGROV1 ovarian): 31.9 nM [sample A, mean of 2 tests] and 330 nM [sample B, mean of 2 tests]
- TGI (IGROV1 ovarian): 1.49 µM [sample A, mean of 2 tests] and 16.5 µM [sample B, mean of 2 tests]
- TGI (CAKI-1 renal): 2.05 µM [sample A, mean of 2 tests] and 23.9 µM [sample B, mean of 2 tests]
